# Assay results reported in PubChem BioAssay AID686979 (National Center for Advancing Translational Sciences (NCATS), 2013).
# About 50,000 (12%) of roughly 420,000 compounds were called active. The shares of active, inactive and inconclusive entries below differ from those in the screen. The call rests on the fitted dose curve; in most records, active means well fitted inhibition curve with a large enough effect; inconclusive means small, poorly fitted or top-dose-only effect; inactive means flat fitted curve, though single readings scatter. No potency is given beside an inconclusive call; the fits are too rough.
# Experiment: qHTS for Inhibitors of human tyrosyl-DNA phosphodiesterase 1 (TDP1): qHTS in cells in presence of CPT; further: nearly all actives have a fitted effect of over 55% in size
# Conditions: chicken DT40 Tdp1-/-;hTDP1 cells + 20 nM CPT, ATP luminescence, 48 h; activity change, negative = growth inhibition: at 46.2 µM (top of the series) unless noted
# Procedure, shortened: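 Cell growth measured by CellTiter-Glo luminescence after a minimum 48 h, 37 C compound exposure with 20 nM CPT in Tdp1-knockout DT40 cells stably expressing hTDP1, seeded 400/well; qHTS titration format.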
# On the % scale 0 is the no-effect control and ±100 the full control effect; potency means the concentration at half of the fitted maximal effect; tags describe the fitted curve by direction and shape.
SMILES,Potency,"activity change, negative = growth inhibition"
O=C(Nc1ccc(S(=O)(=O)NCc2ccco2)cc1)c1ccc(F)cc1,"inconclusive [inhibitor, full curve, poor fit]",–
COc1ccc(COC(=O)c2cccc(S(=O)(=O)N3CCN(C(C)=O)CC3)c2)cc1,"inconclusive [inhibitor, single point]",–
O=C(/C=C/c1ccccc1Cl)NCc1ccccc1,–,inconclusive: -28.9% [inhibitor]
Cc1cc(Br)ccc1SCC(=O)NCC(c1ccco1)N1CCCCC1 (stereo not given),active: 18.4 µM,–
Clc1cccc(CN2CCN(Cc3nc(CCc4ccccc4)no3)CC2)c1,"inconclusive [inhibitor, single point]",–
COc1ccccc1CN(Cc1ccco1)S(=O)(=O)c1ccc(-n2cnnn2)c(OC)c1,"inconclusive [inhibitor, single point]",–
O=C(CN1CCN(C(C(=O)Nc2ccc(F)cc2)c2ccccc2)CC1)NC1CC1 (stereo not given),inactive,–
O=C(Nc1cccc(C(=O)Nc2ccc(Cl)cn2)c1)c1ccccc1,"inconclusive [inhibitor, single point]",–
CN(C)c1nc(C(N)=O)nc(N2CCOCC2)n1,inactive,–
COc1cc(/C=C(/NC(=O)c2ccccc2)C(=O)Nc2ccc(O)cc2)c([N+](=O)[O-])cc1OC,inactive,–
O=C(CSCc1ccc(Cl)cc1)Nc1ccc(-c2nnc(-c3ccccc3)o2)cc1,"inconclusive [inhibitor, partial curve]",–
COc1ccc(C2CC(c3ccc4ccccc4c3OC(C)=O)=NN2C(=O)/C=C/c2ccccc2)cc1 (stereo not given),"inconclusive [inhibitor, single point]",–
Cc1ccccc1NC(=O)c1cc(S(=O)(=O)Nc2cccc(C(=O)O)c2)ccc1Cl,inactive,–
NS(=O)(=O)c1ccc(N=Nc2c(=O)[nH]n3c(=O)c4c([nH]c23)CCCC4)cc1,inactive,–
O=C(CNC(=O)c1ccccc1)OCc1nc2ccccc2s1,–,inconclusive: -30.4% [inhibitor]
O=S(=O)(c1ccc(F)cc1)n1cnc2ccccc21,inactive,–
Cc1ccc(-c2csc(N=C(N)N)n2)c(C)c1,"inconclusive [inhibitor, partial curve, poor fit]",–
COC(=O)c1ccccc1-c1cc(C)cc2c1OC(CNC(=O)C1CCOC1)C2 (stereo not given),"inconclusive [inhibitor, single point]",–
COc1ccc(-c2c(=O)n(OCc3nc4ccccc4[nH]3)c3ccccc3[n+]2[O-])cc1,inactive,–
Cc1cc2c(cc1S(=O)(=O)N(CCN(C)C)Cc1ccccc1)OCC(=O)N2,active: 13 µM,–
CC(C)c1nc(SCC(=O)Nc2cccc3ccccc23)n[nH]1,inactive,–
COc1ccc(CCC(=O)Nc2ccc(N3CCOCC3)c(S(=O)(=O)Nc3ccc(OC)cc3)c2)cc1,"inconclusive [inhibitor, single point]",–
O=C(NC1CC1)C1=C[C@@H](c2ccc3c(c2)OCO3)C[C@@H](OCc2ccc(CO)cc2)O1,"inconclusive [inhibitor, single point]",–

SMILES,Potency,"activity change, negative = growth inhibition"
C=CCn1c(SCC(=O)Nc2ccc(O)cc2)nc2sc(CC)cc2c1=O,"inconclusive [inhibitor, single point]",–
C=C[C@@H]1c2cccc(C)c2N(S(=O)(=O)c2ccc(C)cc2)[C@H](c2ccccc2)C1(C#N)S(=O)(=O)c1ccccc1 (stereo not given in full),"inconclusive [inhibitor, single point]",–
CN(C(=O)c1cccc(NC(=O)Cc2ccc(NC(=O)C3CCN(S(=O)(=O)c4cccc([N+](=O)[O-])c4)CC3)cc2)c1)C1CCCC1,"inconclusive [inhibitor, single point]",–
C=C1C(=O)OCC2C(C(=O)O)=CC3C(C)C(C)=CC123 (stereo not given),active: 18.4 µM,–
CCOC(=O)Cc1csc(NC(=O)Nc2ccc(Cl)cc2)n1,active: 20.6 µM,–
N#Cc1cccc(S(=O)(=O)NNC(=O)C23CC4CC(CC(C4)C2)C3)c1,inactive,–
CC(NCC(=O)Nc1ccccc1C(=O)NC1CC1)c1cccc(C(F)(F)F)c1 (stereo not given),"inconclusive [inhibitor, single point]",–
Cc1ccc2[nH]c(=O)c(C(c3nnnn3C3CCCC3)N3CCCc4ccccc43)cc2c1 (stereo not given),"inconclusive [inhibitor, single point]",–
CN(C)c1nc(SCC(=O)Nc2ccccc2)nc(N2CCOCC2)n1,inactive,–
Cc1cccc(N2CCN(S(=O)(=O)c3cc(C(=O)Nc4ccc(Oc5ccccc5)cc4)ccc3F)CC2C)c1 (stereo not given),active: 2.06 µM,–
COc1ccc(C(=O)NCCn2cc(SCC(=O)Nc3ccc4c(c3)OCCO4)c3ccccc32)cc1,"inconclusive [inhibitor, single point]",–
C/C(=N\NC(=O)c1ccc(NS(=O)(=O)c2cccs2)cc1)c1ccc(C(C)(C)C)cc1,active: 7.31 µM,–
CCN(CC)S(=O)(=O)c1cccc(NC2=NCC(C)S2)c1 (stereo not given),inactive,–
Cc1cnc(CN(C)Cc2c(C(=O)N3CCc4ccccc4C3)nc3ccc(Cl)cn23)[nH]1,inactive,–
CCC(Oc1ccccc1F)C(=O)Nc1cc(-c2ccccc2)no1 (stereo not given),"inconclusive [inhibitor, partial curve]",–
COCC(=O)N1CCC2(CC1)CCN(c1ccc(-c3ccccc3)cc1)CC2,"inconclusive [inhibitor, full curve, poor fit]",–
Cc1cccc(C(=O)N[C@H](C(=O)OCC(=O)NC2CCS(=O)(=O)C2)C(C)C)c1 (stereo not given in full),inactive,–
COc1ccccc1C(c1c(O)cc(C)n(Cc2ccco2)c1=O)N1CCCCC1 (stereo not given),inactive,–
Cc1ccc(-c2nc(CS(=O)CC(=O)NCCN3CCCCCC3)c(C)o2)cc1 (stereo not given),inactive,–
CCOc1ccccc1NC(=O)CSc1c2c(nc3ccc(Cl)cc13)CCCC2,"inconclusive [inhibitor, single point]",–
CC(C)c1cc(C(=O)O)c2cnn(C(C)C)c2n1,"inconclusive [inhibitor, single point]",–
CC1(C(=O)NCc2ccco2)Cc2c(-c3ccccc3)ccnc2O1 (stereo not given),active: 2.59 µM,–
